About 2,200 (0.71%) of roughly 310,000 compounds showed an effect of 50% or more. The effect is printed as a negative number. The list shows a part of the results.
These molecules were tested against human ether-à-go-go-related gene (hERG) potassium channel (human, UniProt Q12809) (assay: primary screen, population patch clamp on CHO cells stably expressing hERG).
human ether-à-go-go-related gene (hERG) potassium channel, sequence (Q12809 whole entry, looked up): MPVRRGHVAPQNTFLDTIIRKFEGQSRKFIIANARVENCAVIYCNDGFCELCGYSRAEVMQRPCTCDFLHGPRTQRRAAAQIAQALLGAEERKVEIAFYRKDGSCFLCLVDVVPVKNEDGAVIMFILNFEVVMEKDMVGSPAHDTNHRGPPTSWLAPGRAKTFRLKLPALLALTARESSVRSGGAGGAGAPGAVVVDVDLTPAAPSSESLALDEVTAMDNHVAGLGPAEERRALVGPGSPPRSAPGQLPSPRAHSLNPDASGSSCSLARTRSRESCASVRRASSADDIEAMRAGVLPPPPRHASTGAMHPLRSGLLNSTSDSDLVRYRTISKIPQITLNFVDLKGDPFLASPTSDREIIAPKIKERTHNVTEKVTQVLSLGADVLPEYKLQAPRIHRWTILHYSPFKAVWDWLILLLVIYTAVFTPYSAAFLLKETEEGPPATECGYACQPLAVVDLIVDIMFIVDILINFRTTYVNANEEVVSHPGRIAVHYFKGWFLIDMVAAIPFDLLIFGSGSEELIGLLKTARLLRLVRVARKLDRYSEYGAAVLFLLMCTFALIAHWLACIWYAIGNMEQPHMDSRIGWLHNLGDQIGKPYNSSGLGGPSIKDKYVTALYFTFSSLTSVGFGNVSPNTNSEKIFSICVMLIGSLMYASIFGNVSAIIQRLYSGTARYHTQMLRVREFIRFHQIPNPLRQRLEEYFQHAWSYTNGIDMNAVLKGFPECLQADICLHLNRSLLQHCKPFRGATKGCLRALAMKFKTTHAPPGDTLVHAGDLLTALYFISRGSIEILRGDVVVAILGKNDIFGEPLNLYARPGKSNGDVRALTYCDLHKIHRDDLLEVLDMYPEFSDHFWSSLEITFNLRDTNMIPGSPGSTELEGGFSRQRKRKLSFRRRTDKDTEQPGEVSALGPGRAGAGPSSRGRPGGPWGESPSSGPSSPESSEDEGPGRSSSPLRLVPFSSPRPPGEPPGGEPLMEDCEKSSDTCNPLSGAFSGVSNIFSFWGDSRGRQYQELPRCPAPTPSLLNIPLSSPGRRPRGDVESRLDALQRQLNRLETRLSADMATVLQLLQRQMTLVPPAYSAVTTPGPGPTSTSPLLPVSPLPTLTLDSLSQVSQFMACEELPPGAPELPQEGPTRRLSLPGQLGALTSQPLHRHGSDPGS

SMILES | hERG current change (%, negative = inhibition) at 1uM [%]
O=[N+]([O-])c1ccc(N/N=C/c2cccc(O)c2)cc1 | 12.3
COC(=O)N/N=C/c1cccc(OC(=O)c2ccc3c(c2)OCO3)c1 | 5.2
COc1cccc(OC)c1NC(=O)Cc1nn(C)c(=O)c2ccccc12 | 9.86
COc1ccc(OC)c(CNS(=O)(=O)c2c(C)nc3scc(C)n3c2=O)c1 | 18.2
CC(=O)Nc1ccc(C2=NN(Cc3nnc(-c4ccccc4)o3)C(=O)SC2)cc1 | 6.78
COc1cc(Cl)ccc1OCc1cc(C(=O)NC(C)Cc2cnccn2)no1 (stereo not shown) | -3.23
O=C(NC1CCCc2ccccc21)N[C@@H](Cc1ccccc1)C(=O)O (stereo partly shown) | -2.57
CC(NC(=O)C1CC2CCCC(C1)C2=O)c1ccccc1 (stereo not shown) | 0.665
CC(C)N(C(=O)COC(=O)CNS(=O)(=O)c1ccccc1F)c1ccccc1 | 11.8
O=C(OCc1ccccc1)/C(=C/c1cccc([N+](=O)[O-])c1)NC(=O)c1ccco1 | -34.9
COc1ccc(CCNC(=O)C2CCN(C(=O)c3ccc(F)cc3)CC2)cc1OC | 15.1
COc1ccc(NS(=O)(=O)c2cc(NC(=O)CC(C)(C)C)ccc2N2CCCC2)cc1 | -0.956
CN(C)C(=O)CCC(=O)N1CCCC(C(=O)c2ccc(C(F)(F)F)cc2)C1 (stereo not shown) | 11.3
CC(=O)C1C(c2ccccc2)c2c(n[nH]c2C)CC1(C)O (stereo not shown) | 2.8
CC(C)(C)c1nc(CN2CCOCC2)cc(CN2CCOCC2)c1O.Cl | -2.95
N#CC1=C(N)n2c(s/c(=C\c3ccco3)c2=O)=C(C#N)C1c1ccco1 (stereo not shown) | -14.9
O=C(OC1CCCCC1=O)c1cc(=O)c2ccccc2o1 (stereo not shown) | 13.8
Nc1nnc(SCC(=O)NC2CCCCCCC2)s1 | 12
CC(C)CNC(=O)NC(=O)COC(=O)c1cc([N+](=O)[O-])ccc1NCc1ccccc1Cl | 3.41
COc1cc(/C=N/O)c(Br)cc1OCC(=O)Nc1ccccc1C | 5.8
COc1ccc(N(C(=O)c2snc(C(N)=O)c2N)C(C(=O)NC2CCCCC2)c2ccc(C)o2)cc1 (stereo not shown) | 14.8
CSc1ncc(/C=C2/C(=O)NC(=O)N(c3ccc(C)cc3)C2=O)cn1 | 13.2

SMILES | hERG current change (%, negative = inhibition) at 1uM [%]
COc1ccc(-c2csc(NC(=O)c3ccc(S(=O)(=O)N4CCc5ccccc5C4)cc3)n2)c(OC)c1 | 14.1
COc1ccc(N2CCN(CC(=O)N3CCC(C)CC3)CC2)cc1 | 5.38
O=C(Nc1nnc(CCN2CCCCC2)s1)c1ccccc1Cl | 5.3
O=C(c1ccc(Cl)cc1)c1ccc(OCC(O)CN2CCOCC2)cc1 (stereo not shown) | 10.9
COc1ccc2c(C)c(Cc3ccccc3)c(=O)oc2c1OC | 9.24
CC(C)OCCCNC(=O)C(NS(=O)(=O)c1ccc2c(c1)c(=O)n(C)c(=O)n2C)c1ccccc1 (stereo not shown) | 6.63
CCc1ccc(OCCOCCN2CCN(C)CC2)cc1.O=C(O)C(=O)O | 8.56
S=C1NCCOCCOCCNC(=S)N2CCOCCOCCN1CCOCCOCC2 | 13.2
COc1cccc(Cl)c1NC(=O)N1CCN(c2ccnc3cc(Cl)ccc23)CC1 | 12.8
Cc1cc(C)c(Cn2cnc(-c3ccc([N+](=O)[O-])cc3)c2)c(C)c1 | 8.82
Cc1ccc(-c2csc(NC(=O)N3CCOCC3)n2)cc1 | 6.24
CCOc1cccc(C2C(C#N)=C(N)Oc3cc(C)[nH]c(=O)c32)c1OCC (stereo not shown) | 11.1
CCOC(=O)N1CCN(c2nnc(-c3ccccc3)c3ccccc23)CC1 | 8.84
O=C(NC1CCCN(Cc2ccc(Cl)cc2)C1)c1ccoc1 (stereo not shown) | -24.5
COc1ccc(C(=O)OCC(=O)Nc2cc(C)on2)c(OC)c1OC | 13.4
CSCCC1NC2(C(=O)Nc3ccc(Cl)cc32)[C@@H]2C(=O)N(C3CCCC3)C(=O)[C@H]12 (stereo partly shown) | 0.174
O=C(CSc1nc2ccccc2c2nc3ccccc3n12)NCc1ccco1 | -3.66
CC(=O)c1ccc(Sc2ccccc2)cc1 | 12.1
Cc1cccc(-n2ncc3c(Nc4c(C)n(C)n(-c5ccccc5)c4=O)ncnc32)c1 | 1.01
Cc1cccc(C)c1OCc1cc(C(=O)N(C)Cc2nc3ccccc3[nH]2)no1 | -6.23
O=C(/C=C/c1ccccc1)C1=C(O)C(=O)N(CCO)C1c1cccc([N+](=O)[O-])c1 (stereo not shown) | 13.1

Source: PMC4336329 (PLoS ONE, 2015)
